In the supplement of paper PMC12217912:
Some of the results follow. The full chains were built here from the parent and the listed change. Inactive controls read about 0.05.

B1: TEV protease; numbered along this chain (parent)
chain: MGESLFKGPRDYNPISSSICHLTNESDGHTTSLYGIGFGPFIITNKHLFRRNNGTLVVQSLHGVFKVKDTTTLQQHLVDGRDMIIIRMPKDFPPFPQKLKFREPQREERICLVTTNFQTKSMSSMVSDTSCTFPSGDGIFWKHWIQTKDGQCGSPLVSTRDGFIVGIHSASNFTNTNNYFTSVPKNFMELLTNQEAQQWVSGWRLNADSVLWGGHKVFMVKPEEPFQPVKEATQL

Variants of: B1
Experiment: raw area under fraction-flipped curve 0-4 h after induction (AUC4h, not background-subtracted), DNA-recorder readout of cleavage of the substrate (dimensionless); higher = more cleavage of the substrate by the protease variant
Details: temperature: 34 °C; time window: 0-4 h after rhamnose induction
Protocol: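 In vivo DNA recorder in E. coli TOP10(DE3) ΔrhaA at 34 °C. Each TEVp single-site mutant (parent TEVp 0) is paired with a single-site variant of the 7-mer TEVs (canonical ENLYFQ|S). The substrate sits between flexible linkers in a Bxb1-sfGFP-TEVs-SsrA fusion, so cleavage stabilises Bxb1 and speeds flipping of a recombination array, read by NGS. The value is the raw area under the fraction-flipped curve over 0-4 h after rhamnose induction (AUC4h), with ≥20 reads per time point. It is not background-subtracted; inactive controls average about 0.047.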
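Note: Bxb1 expression induced with 0.2% (w/v) L-rhamnose at OD600 near 0.5, cultures sampled hourly, flipped fraction per protease–substrate barcode pair counted by paired-end Illumina sequencing.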

| Variant | area with substrate ENLYFAS | area with substrate ENLYFDS | area with substrate ENLYFES | area with substrate ENLYFFS | area with substrate ENLYFGS | area with substrate ENLYFHS | area with substrate ENLYFIS | area with substrate ENLYFKS | area with substrate ENLYFLS | area with substrate ENLYFMS | area with substrate ENLYFNS | area with substrate ENLYFPS | area with substrate ENLYFRS | area with substrate ENLYFTS | area with substrate ENLYFVS | area with substrate ENLYFWS | area with substrate ENLYFYS | area with substrate ENLYFCS | area with substrate ENLYFSS |
| --- | --- | --- | --- | --- | --- | --- | --- | --- | --- | --- | --- | --- | --- | --- | --- | --- | --- | --- | --- |
| F65E | 0.0585 | 0.0438 | 0.0557 | 0.0614 | 0.0681 | 0.0467 | 0.0598 | 0.0583 | 0.052 | 0.0628 | 0.0304 | 0.0537 | 0.0606 | 0.0513 | 0.0645 | 0.063 | 0.0772 | – | – |
| F65R | 0.0502 | – | – | 0.0651 | 0.065 | 0.0587 | 0.0537 | 0.0573 | – | 0.062 | 0.0668 | 0.0521 | – | 0.0454 | – | 0.0703 | 0.0546 | 0.0613 | 0.0781 |
| T71A | 0.0597 | – | 0.0646 | 0.0657 | 0.0721 | – | 0.0593 | 0.0638 | 0.0775 | 0.0611 | 0.0527 | 0.059 | 0.0416 | 0.0702 | 0.0568 | 0.0456 | 0.0604 | 0.0567 | 0.0638 |
| T71F | 0.0653 | – | 0.0607 | 0.0717 | – | 0.0516 | 0.0535 | 0.0594 | 0.0482 | 0.0608 | 0.0724 | 0.0546 | 0.0556 | 0.0559 | 0.0526 | – | 0.064 | 0.0553 | 0.0515 |
| R81G | 0.0374 | – | – | 0.0701 | 0.0607 | 0.0544 | 0.0628 | 0.062 | – | 0.0711 | – | 0.0595 | 0.0595 | – | – | 0.065 | – | 0.0331 | 0.0612 |
| G80H | 0.0668 | – | 0.0602 | – | 0.0642 | 0.068 | 0.0472 | 0.0644 | – | 0.0539 | – | – | – | – | – | 0.0405 | – | – | – |
| Q74G | 0.0818 | – | 0.066 | – | 0.0337 | 0.0535 | 0.0637 | 0.0684 | 0.0802 | 0.0878 | 0.0663 | 0.0517 | 0.0631 | 0.0557 | 0.0486 | 0.0411 | 0.0591 | 0.0601 | 0.0626 |
| Q74H | 0.0634 | – | – | – | – | 0.0564 | 0.0659 | – | – | 0.0761 | 0.0681 | 0.0373 | 0.0687 | – | 0.0524 | – | 0.0593 | 0.0665 | – |
| Q74D | 0.0747 | 0.0474 | 0.0709 | 0.0577 | – | 0.0686 | 0.0635 | 0.0673 | 0.0536 | 0.0565 | 0.064 | 0.0644 | 0.0572 | 0.0658 | – | – | 0.0563 | 0.0532 | – |
| V78A | 0.0534 | 0.0653 | 0.051 | 0.0744 | – | 0.0508 | 0.0602 | 0.0642 | 0.044 | 0.0602 | 0.0577 | 0.0643 | 0.0697 | 0.0767 | 0.0532 | 0.0573 | 0.0618 | 0.0574 | – |
| V64N | 0.0612 | – | 0.107 | 0.0527 | – | – | 0.0556 | 0.0726 | – | 0.0468 | 0.065 | 0.0459 | 0.0608 | 0.064 | 0.0601 | – | – | 0.0592 | 0.0595 |
| K68F | 0.062 | – | – | 0.0476 | – | 0.0716 | 0.0634 | – | – | – | – | 0.0595 | – | – | – | – | – | – | – |
| G63I | 0.0071 | 0.0681 | 0.0536 | – | – | 0.0551 | 0.0488 | 0.0565 | – | – | – | 0.0499 | 0.0492 | – | 0.0321 | – | – | 0.0584 | – |
| G63M | 0.0448 | – | 0.0542 | – | – | 0.0515 | 0.044 | 0.0756 | – | 0.0558 | – | 0.055 | – | 0.049 | 0.0468 | 0.0602 | 0.0666 | 0.103 | 0.0396 |
| G63N | 0.0608 | – | 0.0582 | 0.0749 | 0.061 | – | 0.0445 | – | – | – | – | 0.0579 | 0.0582 | 0.0533 | – | – | 0.0646 | 0.0728 | 0.0501 |
| D69H | 0.0503 | 0.0463 | 0.0546 | 0.0697 | – | – | 0.057 | – | 0.0549 | 0.0673 | 0.0618 | 0.0528 | 0.0635 | 0.0606 | 0.0661 | 0.05 | – | 0.0584 | 0.0671 |
| D69Q | 0.0504 | 0.064 | 0.0643 | 0.0714 | 0.0535 | – | 0.0559 | 0.0587 | 0.0458 | 0.0563 | – | 0.0585 | – | 0.0596 | 0.0723 | 0.0609 | 0.0691 | – | 0.0605 |
| H76E | 0.0451 | 0.0448 | 0.0643 | 0.0609 | – | 0.0776 | 0.0551 | 0.063 | 0.068 | 0.0541 | 0.054 | 0.0456 | 0.033 | 0.0678 | 0.0627 | 0.0592 | 0.0806 | 0.0629 | 0.0782 |
| L61A | 0.0463 | – | 0.077 | 0.0567 | 0.0592 | 0.0809 | 0.0716 | 0.0682 | 0.0571 | 0.0671 | 0.0723 | 0.0659 | 0.0589 | 0.0414 | 0.0559 | 0.0624 | 0.053 | 0.0613 | 0.0454 |
| K66F | 0.0597 | 0.0459 | 0.0608 | 0.0551 | 0.0609 | 0.0638 | 0.0594 | 0.058 | – | 0.099 | 0.0597 | 0.0577 | 0.0632 | 0.0557 | – | 0.0575 | 0.0525 | 0.0573 | 0.0594 |
| D79G | 0.0613 | – | 0.0696 | 0.0662 | 0.0602 | 0.064 | 0.055 | 0.0732 | – | 0.0588 | 0.054 | 0.0688 | 0.0466 | 0.0273 | 0.0348 | 0.0618 | – | 0.0568 | 0.0673 |
| D79L | 0.0236 | – | 0.0587 | 0.0741 | 0.0529 | – | 0.03 | – | – | 0.0738 | 0.0701 | 0.0603 | 0.0706 | – | 0.0415 | – | 0.0589 | 0.0543 | 0.0348 |
| D79V | 0.0649 | – | – | 0.0651 | 0.0358 | 0.0189 | 0.033 | – | – | – | 0.0713 | 0.0672 | – | 0.0473 | 0.0774 | – | 0.0667 | – | 0.0501 |
| S60V | 0.0573 | 0.0533 | 0.0604 | 0.0619 | – | 0.0316 | 0.0454 | 0.0471 | 0.0617 | 0.0592 | 0.0573 | 0.0599 | 0.0482 | 0.0504 | 0.0484 | 0.0467 | 0.0517 | 0.0505 | 0.0565 |
| S60F | 0.0664 | – | 0.0704 | 0.0522 | 0.068 | 0.058 | 0.0477 | 0.057 | 0.065 | 0.061 | 0.0756 | 0.061 | – | 0.063 | 0.0711 | 0.0552 | – | – | – |
